{"source": "paper PMC12136788", "binders": {"B1": {"name": "chr11:115359251:115359252:-_ENSMUSG00000020737_ENSMUST00000021083|mus_mus|FALSE|FALSE (ssRNA)", "RNA": "GGGAGUUCUACAGUCCGACGAUCACACAUCAGGAACCAGAUCAUCUGUUCUUAGAAACAGUCUACUACUCCAGUCUACUACUAGAAAACACUCAUGCCAUGGCGCACAGACCCAGGAGUCAGACAGACAGAAGGAAAGGAAGACAACAGAGGAUUGAGCAUCA"}, "B2": {"name": "72196771_72196891_5085_CDS_ENSG00000197555_ENST00000555818|human|control|control (ssRNA)", "RNA": "GGGAGUUCUACAGUCCGACGAUCGGUGAAAAAGUGCUCCCUCUGGCUAUUGUAAAUGCUCUCGUCCGACAGUGUUCUGUGCAAGGCCCGCCGUGAGGUGGGGGUGCUGGGGAAAGGAGACUGAGGAGAGGAGAGUGCGUGGAACAACAGAGGAUUGAGCAUCA"}, "B3": {"name": "chr13:14146135:14146136:-_ENSMUSG00000021302_ENSMUST00000170957|mus_hu|motif|central (ssRNA)", "RNA": "GGGAGUUCUACAGUCCGACGAUCAGUGUAUUCAAAAGAACCUACAUCCUCAAGAUAAUGUACACAGUAUUUUUUUAUAUCGGUGUUUUCUGUUCUCUGGCGCAAGAUAUUCUGCACCUGGGUGCUUUCAGGCCUUGACCAAAUCAACAGAGGAUUGAGCAUCA"}, "B4": {"name": "chr18:56902939:56902940:+_ENSMUSG00000024590_ENSMUST00000025486|mus_hu|FALSE|FALSE (ssRNA)", "RNA": "GGGAGUUCUACAGUCCGACGAUCUGUGACACCAGCGUUUGCAGCCCAAAUUGUAACAGUCUGGCCUGCCUUCAGCACAUAUCUUGAGGUAUAUUUAUAACUGACUGAUGUGUCUCCAAUUUUUCUGAUCAUCUCCCAGCCUCCCAACAGAGGAUUGAGCAUCA"}, "B5": {"name": "120444943_120445063_861_3pUTR_ENSMUSG00000027285_ENSMUST00000124187|mouse|control|control (ssRNA)", "RNA": "GGGAGUUCUACAGUCCGACGAUCGUAGGAGCUUUUUCCCACUGAGACAUCUUUCUGGCUCCACUAUUCCAUUAAUAUUGCUAGCAAGAAAAACUAUCAAUAUCCCUGUCACAACAAUCUAGAAACGGACUUCUUUGACUACAUCAACAGAGGAUUGAGCAUCA"}, "B6": {"name": "chr5:37680062:37680063:+_ENSMUSG00000029121_ENSMUST00000031004|mus_hu|mus_mus_mus_hu_False|28_98 (ssRNA)", "RNA": "GGGAGUUCUACAGUCCGACGAUCUUUGGGUGUAGCUGGCACCUCGUACACAGGACCGUCAUACAUGCCCCUGGAAACCCCUUGCAAUCCAAAAACCUUAUUCCUGAUCCUGACACGCUGGUACAGGUGCUCCGGGAACGCCUUCAACAGAGGAUUGAGCAUCA"}}, "note": "This is one part of the list."}
{"target": "T1, UNK ZnF1-3 (human, UniProt Q9C0B0 31-174)", "T1 sequence": "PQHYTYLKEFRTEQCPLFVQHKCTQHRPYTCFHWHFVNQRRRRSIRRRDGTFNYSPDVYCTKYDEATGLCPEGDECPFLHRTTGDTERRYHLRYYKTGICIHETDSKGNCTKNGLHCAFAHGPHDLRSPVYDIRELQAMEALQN", "assay": "nsRBNS (natural sequence RNA bind-n-seq); RBNS binding buffer (assumed for nsRBNS): 25 mM Tris pH 7.5, 150 mM KCl, 3 mM MgCl2, 0.01% Triton X-100, 500 ug/ml BSA, 20 U/ml SUPERase-In, 4 C; UNK is unkempt and MSI1 is Musashi-1; names of the RNAs are library labels; protein concentration not given here; high values mean tight binding", "units": {"binding signal": "enrichment R"}}
{"binder": "B1", "binding signal": 1.63}
{"binder": "B2", "binding signal": 1.47}
{"binder": "B3", "binding signal": 0.574}
{"binder": "B4", "binding signal": 0.929}
{"binder": "B5", "binding signal": 1.05}
{"binder": "B6", "binding signal": 0.868}
